Experimental findings from ChEMBL document CHEMBL4888484, “Replenishing the malaria drug discovery pipeline: Screening and hit evaluation of the MMV Hit Generation Library 1 (HGL1) against asexual blood stage Plasmodium falciparum ,using a nano luciferase reporter read-out” (2022) are described below.

What is called % Inhibition is the drop in the measured response relative to a control, in per cent.

In all, about 150,000 compounds went through this assay and about 540 (0.36%) showed an effect of 50% or more. The list shows a part of the results.

For the experiment, the system named is Plasmodium falciparum. Description: Primary screen in NF54 nanoGlo assay, in single point, at 2uM, 72h; a lower Z score goes with more inhibition. Conditions: timepoint 72 hour. It is filed as functional, Erythrocyte.
Turning to `O=C(NCCn1ccnc1)c1cc(-c2ccsc2)n[nH]1`, the “% Inhibition” value is recorded as -15% and the Z score came to 1.64.

`COc1ccc(NC(=O)CN2CCc3nc(C)[nH]c(=O)c3CC2)cc1Cl`: the “% Inhibition” value was -8% and the Z score amounted to 1.11.

Regarding `C1CC(C(Nc2nnc(C3CC3)o2)C2CCC2)C1`, the “% Inhibition” value is given as 14% and the Z score was -1.95.

Regarding `CN(C)[C@H](c1ccc(F)cc1)c1nc(CC(N)=O)nn1CC(F)(F)F`, the “% Inhibition” value worked out at 3% and the Z score is reported as -0.62.

With `Cc1cnc(CNC(=O)N[C@@H](C)c2cnn(C(C)C)c2)s1`, the “% Inhibition” value is given as -1% and the Z score is 0.17.

As for `COc1ccc2c(n1)N(C)CCN2C(=O)[C@H]1CCc2nc(C)nn2C1`, the “% Inhibition” value was determined as 0% and the Z score is recorded as -0.02.

Take `CC(C)CS(=O)(=O)NC[C@H](C)N1CCN(C)CC1`: the “% Inhibition” value is -11% and the Z score amounted to 1.8.

Consider `CC(C)n1cc(S(=O)(=O)NCc2cccc(Cl)c2)c2cccnc21`, for which the “% Inhibition” value is given as 7% and the Z score is -1.18.

With `CN(Cc1ccccn1)c1ccnc(C2CCCC2)n1`, the “% Inhibition” value is reported as -1% and the Z score is 0.09.

Regarding `COc1ccc(CN2C(=O)Cc3ccccc3[C@@H](C(=O)O)[C@@H]2c2ccccc2)c(OC)c1`, the “% Inhibition” value is listed as 0% and the Z score is recorded as -0.05.

For `O=C(c1cnc(-c2cccnc2)nc1)N1CCc2sccc2C1`, the “% Inhibition” value is given as -5% and the Z score is given as 0.64.

In the case of `O=C(NCc1ccccc1)c1cc(S(=O)(=O)N2CCCCC2)cs1`, the “% Inhibition” value is on record as -10% and the Z score turned out to be 1.13.

Consider `COc1ccccc1-c1ccc(C(=O)N2CCCNC(=O)[C@@H]2C)s1`, for which the “% Inhibition” value was -10% and the Z score came to 1.82.

`COC(=O)N[C@H](C(=O)Nc1nnn(-c2ccc(F)cc2)c1C)C(C)C`: the “% Inhibition” value is reported as -1% and the Z score is listed as 0.11.

For `CN(CCO)c1c(Cl)cccc1C#N`, the “% Inhibition” value was -6% and the Z score is listed as 0.64.

As to `O=C(NCc1cccc(N2CCCC2)c1)[C@H]1CCCN(Cc2ccco2)C1`, the “% Inhibition” value was -15% and the Z score is recorded as 1.62.

As for `Cn1c(C2CCN(C(=O)Nc3ccc(C(F)(F)F)cc3)CC2)cc(=O)n2nccc12`, the “% Inhibition” value is on record as -7% and the Z score was 1.17.

With `CN(Cc1nccn1C(F)F)Cn1c(=S)oc2ccccc21`, the “% Inhibition” value is listed as 5% and the Z score is -0.41.

For `O=C(NCC[C@H]1CCCCN1)c1cccc(-c2cc(O)c(F)c(F)c2)c1`, the “% Inhibition” value was -10% and the Z score amounted to 1.22.

As for `COCCOCC(=O)N(C1CCC(C)CC1)[C@@H](C)c1ccc(OC)cc1OC` (some centres undefined), the “% Inhibition” value is listed as -9% and the Z score is 1.32.

As to `Cc1ccc(S(=O)(=O)Nc2cncc(N3CCCC3)n2)cn1`, the “% Inhibition” value is given as -20% and the Z score is given as 2.03.

On to `Cc1ccc(S(=O)(=O)N[C@H](c2c(C)nn(-c3ccccc3)c2C)C(F)(F)F)s1`, for which the “% Inhibition” value is on record as -4% and the Z score is reported as 0.53.

For `Cc1cc(C)cc(CN2C(=O)NC3(CCOCC3)C2=O)c1`, the “% Inhibition” value was -21% and the Z score was 2.48.

Consider `Cc1ccc(-n2nc(C)c3c(=O)n(CC(=O)N4CCN(c5cc(Cl)ccc5C)CC4)ccc32)cc1`, for which the “% Inhibition” value is -13% and the Z score came to 2.07.

`CC(C)c1cc(CN(C)C(=O)CN2CCCCCCC2)on1`: the “% Inhibition” value is listed as -19% and the Z score is listed as 2.56.

For `C=CCN(Cc1ccc(F)cc1)C(=O)CCNC(C)=O`, the “% Inhibition” value is -16% and the Z score is 2.05.

Take `O=C(NCc1ccc(F)cc1)C1[C@@H]2C=C[C@@]3(CN(Cc4ccccc4Cl)C(=O)[C@H]13)O2` (some centres undefined): the “% Inhibition” value is listed as -9% and the Z score was 1.29.

In the case of `O=C1O[C@H]2CN(C3Cc4ccccc4C3)C[C@H]2N1Cc1ccccn1`, the “% Inhibition” value stood at 4% and the Z score is given as -0.66.

Turning to `FS(F)(F)(F)(F)c1cccc(-n2cc(C3CCCCC3)nn2)c1`, the “% Inhibition” value is on record as -1% and the Z score is listed as 0.14.

In the case of `CC1(C)CCc2nc(NC(=O)[C@@H]3COCCO3)sc2C1`, the “% Inhibition” value is on record as -8% and the Z score is reported as 1.06.

Regarding `CC(C)CC(=O)[C@H]1CCCN(C(=O)CNC(N)=O)C1`, the “% Inhibition” value was -7% and the Z score is recorded as 0.9.

`Nc1ncccc1CN1CCC[C@H](CNC(=O)c2ccco2)C1`: the “% Inhibition” value is reported as 4% and the Z score is on record as -0.76.

Regarding `CN(C)C(=O)N1C[C@H]2CC[C@@H](C1)N(C(=O)c1c[nH]c3c(F)cccc3c1=O)C2`, the “% Inhibition” value is listed as -1% and the Z score is given as 0.19.

`c1ccc(-c2noc(-c3ccc(NC4CCCCC4)nn3)n2)cc1`: the “% Inhibition” value is 45% and the Z score is -10.06.

For the molecule `COCc1csc(Cc2cn3ccccc3n2)n1`, the “% Inhibition” value was determined as 5% and the Z score is -0.99.

As for `CCOc1ncccc1NC(=O)N1CCC[C@H]1c1cccs1`, the “% Inhibition” value is reported as 15% and the Z score was -2.01.

Take `CN1C2CCC1CN(C(=O)NCCc1c[nH]c3ccc(F)cc13)CC2` (centres undefined): the “% Inhibition” value is 3% and the Z score is on record as -0.27.

In the case of `O=C(N[C@H]1CCCC[C@@H]1F)c1ccc[nH]1`, the “% Inhibition” value is recorded as -1% and the Z score was determined as 0.08.

Take `O=C1C[C@]2(CC2(c2ccccc2)c2ccccc2)C(=O)N1c1ccc(Cl)cc1Cl`: the “% Inhibition” value is 8% and the Z score is reported as -1.47.

`CCn1nc(C)c(CN2CCc3c(c(CCC(=O)N4CCCC4)nn3C)C2)c1C`: the “% Inhibition” value is recorded as -8% and the Z score stood at 0.95.

With `CCN(CC)CC(=O)N1CCC(c2nc(C(F)(F)F)c[nH]2)CC1`, the “% Inhibition” value was 3% and the Z score was -0.55.

Consider `CCc1ccc(CN2C(=O)CC[C@@]2(C)C(=O)NC2CCCCCCC2)cc1`, for which the “% Inhibition” value is given as -8% and the Z score is reported as 0.92.
